Among all 310,000 compounds or so, about 18,000 (5.8%) were called active. Inconclusive results, whose numbers are uncertain, are shown with a selection of clear calls. Calls follow the shape of the dose curve; as a rule, active = well fitted inhibition curve with a large enough effect; inconclusive = small, poorly fitted or top-dose-only effect, or another doubt; inactive = no such curve, though single readings can be large or run the other way. Potencies of inconclusive entries are left out as doubtful fits.
Experiment: Primary qHTS for delayed death inhibitors of the malarial parasite plastid, 48 hour incubation
Settings: P. falciparum luciferase growth in erythrocytes; series mostly up to 28.7 µM
Procedure, shortened: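 Luciferase-expressing parasites in RBCs, 2% Hct / 0.1% parasitemia final; RPMI 1640 + 0.5% Albumax; 37 C, 5% CO2, one generation; luminescence read-out, lower signal = inhibition.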
Potency is read from the fitted curve at half-maximal effect; tags tell the direction and shape of the fitted curve.

Structure (SMILES) | Potency
Cn1c(CO)cnc1S(=O)(=O)Cc1ccc(Cl)cc1 | inactive
CCN(C(=O)/C=C/c1cc(OC)c(OC)c(OC)c1)C1CCCCC1 | inconclusive [inhibitor, partial curve, poor fit]
Cc1cc(C)nc(NS(=O)(=O)c2ccc(NC(=O)C3(c4ccccc4)CCCC3)cc2)n1 | inactive
Cc1cc(OCc2cc(C(=O)N(C)CCOc3ccccc3)no2)cc(C)c1Cl | inactive
O=C(Nc1cc(Cl)cc(Cl)c1)c1cccnc1 | inconclusive [inhibitor, full curve, poor fit]
COc1ccc(NS(=O)(=O)c2cc(NC(=O)Cn3cnc4c3c(=O)n(C)c(=O)n4C)ccc2C)cc1 | inconclusive [inhibitor, single point]
CCCN1C(=O)/C(=N\OCC(=O)NC23CC4CC(CC(C4)C2)C3)c2ccccc21 | active: 14.7 µM
COc1cccc(N2CCN(c3ccc4nnc(CCC(=O)Nc5ccccn5)n4n3)CC2)c1 | inactive
Cc1ccc(-c2cn3nc(-c4ccccc4)c(-c4ccccc4)nc3n2)cc1 | inconclusive [inhibitor, single point]
CCN(CC)c1ccc(/C=N/NC(=O)CCC(=O)NCc2ccccc2)c(O)c1 | active: 13.1 µM
Cn1ccc2cc3c(cc21)CCN3C(=O)Nc1cccnc1 | inconclusive [inhibitor, single point]
Cc1ccc(C(=O)NCc2ccccn2)cc1S(=O)(=O)N1CCOCC1 | inconclusive [inhibitor, single point]
C[N+]1(CCCCSc2ccc(O)cc2)CCCCC1 | active: 9.28 µM
Cc1cccc(-n2c(C)cc(/C=N/NC(=O)c3cccc([N+](=O)[O-])c3C)c2C)c1 | inconclusive [inhibitor, single point]
CCN(C#N)c1nc(NC(C)C)nc(NC(C)C)n1 | inconclusive [inhibitor, partial curve]
O=C(COC(=O)c1nc(Cl)ccc1Cl)NCc1ccc(Cl)cc1 | inconclusive [inhibitor, partial curve, poor fit]
CC(C)OC(=O)CC1C(=O)NCCN1C(=O)COc1ccc(C(C)(C)C)cc1 (stereo not given) | inconclusive [inhibitor, single point]
COc1cccc(/C=N/Nc2ncnc3c2ncn3Cc2ccccc2)c1O | active: 1.85 µM
Cc1[nH]c2ccccc2c1C(=O)COC(=O)C(C)C | inactive
Cc1ccc(C)c2c1cc(C)c1nnc(SCC(=O)c3cccs3)n12 | inactive
CCS(=O)(=O)c1ncc(Cl)c(C(=O)Nc2ccc(C)cc2)n1 | inactive
O=C(N/N=C/c1ccc[nH]1)c1ccncc1 | inactive
COc1ccc(C2CC(c3cccs3)=NN2C(=O)CSC2=NCCS2)cc1 (stereo not given) | inconclusive [inhibitor, single point]
Nc1ccc2nc(-c3cccc(-c4nc5ccc(N)cc5[nH]4)n3)[nH]c2c1 | active: 2.08 µM
CC(C)(C)OC(=O)NCCCCCNC(=O)c1[nH]cnc1C(=O)Nc1ccc(Cl)cc1 | active: 10.4 µM

Structure (SMILES) | Potency
Clc1cccc(-c2nc(-c3ccc(-c4nn[nH]n4)cc3)no2)c1 | inactive
CC1(C)CC(=O)C2=C(C1)OC(N)=C(C#N)C2c1ccoc1 (stereo not given) | inactive
CCCCc1nc2sc3c(c2c(=O)n1NC(=O)c1ccco1)CC(C)(C)OC3 | inconclusive [inhibitor, full curve, poor fit]
CCCCNS(=O)(=O)c1ccc2nc(-c3cccnc3)cc(C(=O)NC3CC3)c2c1 | inconclusive [inhibitor, single point]
O=C(Nc1ccc(S(=O)(=O)N2CCOCC2)cc1)C1CCN(S(=O)(=O)c2ccc(F)cc2)CC1 | inconclusive [inhibitor, partial curve]
CN(C)CCCn1c2c(c(SCC(=O)Nc3cccc4ccccc34)nc1=O)CCCC2 | inconclusive [inhibitor, single point]
Cc1cccc(Nc2nnc(-c3ccc(C(=O)N4C[C@H]5C[C@H](C4)c4cccc(=O)n4C5)cc3)c3ccccc23)c1 | inconclusive [inhibitor, partial curve, poor fit]
N#C/C(=C/c1ccc(N2CCCC2)c([N+](=O)[O-])c1)c1nc2ccccc2[nH]1 | inconclusive [inhibitor, partial curve, poor fit]
CC(SC1=NCCS1)C(=O)Nc1nnc(-c2ccc(Cl)cc2)s1 (stereo not given) | inactive
CC(C)(C)C(=O)Nc1ccc2oc(-c3cc(F)c(F)cc3Cl)nc2c1 | inactive
O/N=C1\CCCc2ccc3ccccc3c21 | inactive
Cc1ccc(C)c(CN2CCC(CNC(=O)Nc3ccc(Br)cc3F)CC2)c1 | active: 13.1 µM
CN1C(=O)c2cccc3c(N(C)C)ccc(c23)C1=O | inactive
CC1CCCCN1CCNC(=O)c1ccc2c(c1)N(Cc1cccc(Cl)c1)C(=O)c1ccccc1S2=O (stereo not given) | active: 2.94 µM
CC1(C)Cc2cccc(OCC(=O)Nc3cc(S(C)(=O)=O)ccc3Cl)c2O1 | inconclusive [inhibitor, single point]
CC(C)c1ccccc1NC(=O)c1cccnc1 | inactive
CCN(CC)C(=O)c1sc2nc(-c3ccc(OC)cc3)cn2c1C | inactive
Cc1c(NC2(c3nnnn3-c3ccc(Br)cc3)CCCCC2)c(=O)n(-c2ccccc2)n1C | inconclusive [inhibitor, single point]
O=C(CSC1=NCCS1)N1CCN(c2ccccc2)CC1 | inactive
Cc1cc(NC(=O)C(C)SCC(=O)OC(C)C(=O)Nc2ccccc2C)no1 (stereo not given) | inconclusive [inhibitor, single point]
CC(C)CNc1oc(-c2ccccc2Cl)nc1C#N | inactive
Cc1ccc(CC(=O)N2CCOCC2)cc1 | inactive
COc1ccc(C(C)=O)cc1COc1ncnc2ccccc12 | inactive
O=C(Cn1nnc(-c2ccc(Cl)cc2)n1)NC1CCN(Cc2ccccc2)CC1 | inactive
Cc1ccc2[nH]c3c(c2c1)SC(C)(C)CC3=O | inactive
